Data published in PMC6054203.
No constants are given. Whether binding was seen depends on the method and setting. Some results given as binding are weak or reduced against the parent protein; the word gives no strength. Sequences can lack the tags named with a protein.

Protein sequences, listed by entry. Tags and fused reporters are not part of them.
UniProt Q9FJ54: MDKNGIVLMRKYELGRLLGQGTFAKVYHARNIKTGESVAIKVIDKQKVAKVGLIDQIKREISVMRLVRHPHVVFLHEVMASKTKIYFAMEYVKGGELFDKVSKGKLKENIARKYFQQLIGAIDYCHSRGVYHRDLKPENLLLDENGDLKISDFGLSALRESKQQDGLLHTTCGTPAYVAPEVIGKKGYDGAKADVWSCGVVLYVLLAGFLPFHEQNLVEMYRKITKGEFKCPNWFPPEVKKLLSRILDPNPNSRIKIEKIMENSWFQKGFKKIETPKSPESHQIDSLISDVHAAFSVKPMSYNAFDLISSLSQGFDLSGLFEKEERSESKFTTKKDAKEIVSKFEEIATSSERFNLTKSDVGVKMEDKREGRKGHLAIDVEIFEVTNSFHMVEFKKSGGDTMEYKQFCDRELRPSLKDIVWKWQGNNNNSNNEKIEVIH

Key:
Test in all cases: two-hybrid; yeast strain AH109 co-transformed with AD (pGAD.GH) and BD (pGBT9.BS) fusions; growth on SC-LWH and on SC-LWH with 0.5 and 3.0 mM 3-AT
[1] = biological target: CIPK20, two-hybrid fusion (Arabidopsis) (UniProt Q9FJ54)
[2] = biological target: T1, CBL-interacting protein kinase 9 (CIPK9), two-hybrid fusion (Arabidopsis thaliana) (UniProt Q9MAM1)
T1 sequence: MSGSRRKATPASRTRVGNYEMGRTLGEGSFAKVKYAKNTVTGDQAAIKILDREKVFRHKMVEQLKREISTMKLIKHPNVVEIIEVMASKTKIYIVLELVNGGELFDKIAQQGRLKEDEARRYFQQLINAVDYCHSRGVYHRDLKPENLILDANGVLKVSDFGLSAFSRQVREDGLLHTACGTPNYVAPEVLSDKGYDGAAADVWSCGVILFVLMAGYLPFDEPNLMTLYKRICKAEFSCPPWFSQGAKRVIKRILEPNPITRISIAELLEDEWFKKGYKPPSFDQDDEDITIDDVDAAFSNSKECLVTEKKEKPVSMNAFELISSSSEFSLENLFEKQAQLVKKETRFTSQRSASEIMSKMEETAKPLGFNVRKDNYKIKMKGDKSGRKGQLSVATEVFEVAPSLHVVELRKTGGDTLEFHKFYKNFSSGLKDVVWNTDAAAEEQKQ

[3] = biological target: T2, CIPK2, two-hybrid fusion (Arabidopsis) (UniProt Q9LYQ8)
T2 sequence: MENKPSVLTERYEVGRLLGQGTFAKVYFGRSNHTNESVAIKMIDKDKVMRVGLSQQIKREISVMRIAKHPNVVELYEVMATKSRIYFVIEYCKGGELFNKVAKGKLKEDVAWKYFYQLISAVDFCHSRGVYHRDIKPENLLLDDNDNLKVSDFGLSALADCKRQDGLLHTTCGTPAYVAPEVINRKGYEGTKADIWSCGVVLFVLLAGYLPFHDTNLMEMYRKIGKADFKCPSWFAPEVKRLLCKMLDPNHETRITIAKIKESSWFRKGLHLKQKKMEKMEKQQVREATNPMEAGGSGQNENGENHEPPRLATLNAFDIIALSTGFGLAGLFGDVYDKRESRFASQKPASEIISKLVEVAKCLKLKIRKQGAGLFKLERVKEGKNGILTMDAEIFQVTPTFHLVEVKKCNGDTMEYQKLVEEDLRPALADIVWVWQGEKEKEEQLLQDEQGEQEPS

[4] = biological target: T3, CIPK10, two-hybrid fusion (Arabidopsis) (UniProt Q9C562)
T3 sequence: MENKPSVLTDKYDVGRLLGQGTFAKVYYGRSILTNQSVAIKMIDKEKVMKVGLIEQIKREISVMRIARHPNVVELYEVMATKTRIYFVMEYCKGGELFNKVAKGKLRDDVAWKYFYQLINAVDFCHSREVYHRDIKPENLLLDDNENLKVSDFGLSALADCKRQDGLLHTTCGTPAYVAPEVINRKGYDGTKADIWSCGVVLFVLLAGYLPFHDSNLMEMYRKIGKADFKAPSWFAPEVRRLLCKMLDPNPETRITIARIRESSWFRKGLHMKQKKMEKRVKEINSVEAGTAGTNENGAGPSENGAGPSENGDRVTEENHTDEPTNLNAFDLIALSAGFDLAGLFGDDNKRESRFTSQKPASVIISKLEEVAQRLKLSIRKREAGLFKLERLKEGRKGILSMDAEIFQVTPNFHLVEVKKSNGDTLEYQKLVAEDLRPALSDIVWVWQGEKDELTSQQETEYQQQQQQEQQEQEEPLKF

[5] = biological target: T4, CIPK15, two-hybrid fusion (Arabidopsis) (UniProt P92937)
T4 sequence: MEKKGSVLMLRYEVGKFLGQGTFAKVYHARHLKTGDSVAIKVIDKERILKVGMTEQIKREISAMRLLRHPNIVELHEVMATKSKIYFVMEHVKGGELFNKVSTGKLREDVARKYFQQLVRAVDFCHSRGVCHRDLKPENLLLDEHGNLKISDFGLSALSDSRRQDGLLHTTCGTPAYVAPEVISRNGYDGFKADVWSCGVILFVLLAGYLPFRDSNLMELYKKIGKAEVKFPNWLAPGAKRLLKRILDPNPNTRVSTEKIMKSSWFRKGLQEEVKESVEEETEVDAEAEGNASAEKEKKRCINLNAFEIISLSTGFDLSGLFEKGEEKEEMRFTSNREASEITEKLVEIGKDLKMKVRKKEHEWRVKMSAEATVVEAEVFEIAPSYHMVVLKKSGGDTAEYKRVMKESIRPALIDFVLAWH

[6] = biological target: T5, CIPK16, two-hybrid fusion (Arabidopsis) (UniProt Q9SEZ7)
T5 sequence: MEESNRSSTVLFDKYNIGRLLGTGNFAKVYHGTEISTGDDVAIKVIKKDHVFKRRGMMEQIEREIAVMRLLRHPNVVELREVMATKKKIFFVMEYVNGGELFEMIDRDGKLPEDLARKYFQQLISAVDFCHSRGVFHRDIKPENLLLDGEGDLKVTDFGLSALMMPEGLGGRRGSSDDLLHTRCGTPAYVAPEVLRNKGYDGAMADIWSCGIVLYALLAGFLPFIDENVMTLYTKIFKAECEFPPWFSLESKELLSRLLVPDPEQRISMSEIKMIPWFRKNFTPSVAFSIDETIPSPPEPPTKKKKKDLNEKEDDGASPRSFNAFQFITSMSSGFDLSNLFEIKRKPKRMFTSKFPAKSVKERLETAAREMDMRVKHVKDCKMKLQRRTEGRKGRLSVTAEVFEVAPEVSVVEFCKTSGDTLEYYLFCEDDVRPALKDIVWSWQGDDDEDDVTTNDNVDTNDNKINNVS

binding [1]: no binding
binding [2]: binds
binding [3]: no binding
binding [4]: no binding
binding [5]: no binding
binding [6]: no binding
B1: AP2C1 (protein phosphatase 2C), two-hybrid fusion (enzyme, UniProt O80871 1-396)
chain: MSCSVAVCNSPVFSPSSSLFCNKSSILSSPQESLSLTLSHRKPQTSSPSSPSTTVSSPKSPFRLRFQKPPSGFAPGPLSFGSESVSASSPPGGVLKRKRPTRLDIPIGVAGFVAPISSSAAVAATPREECREVEREGDGYSVYCKRGRREAMEDRFSAITNLHGDRKQAIFGVYDGHGGVKAAEFAAKNLDKNIVEEVVGKRDESEIAEAVKHGYLATDASFLKEEDVKGGSCCVTALVNEGNLVVSNAGDCRAVMSVGGVAKALSSDHRPSRDDERKRIETTGGYVDTFHGVWRIQGSLAVSRGIGDAQLKKWVIAEPETKISRIEHDHEFLILASDGLWDKVSNQEAVDIARPLCLGTEKPLLLAACKKLVDLSASRGSSDDISVMLIPLRQFI
